Source: PubChem BioAssay AID1454 (National Center for Advancing Translational Sciences (NCATS), 2008)
Hit rate of the full screen: of about 130,000 compounds, about 550 (0.42%) were called active. Inconclusive means that the source gave no clear call. Such entries were picked first, then a sample of the others. The call rests on the fitted dose curve; in most records, active means well fitted inhibition curve with a large enough effect; inconclusive means small, poorly fitted or top-dose-only effect, or effect the other way; inactive means flat fitted curve, though single readings scatter. Potencies of inconclusive entries are left out as doubtful fits.

Experiment: qHTS Assay for Inhibitors of the ERK Signaling Pathway using a Homogeneous Screening Assay; Stimulation with EGF; further: nearly all actives have a fitted effect of over 55% in size
Details: HEK293-V1b, EGF-stimulated phospho-ERK AlphaScreen
Method in brief: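 After overnight plating in 1% FBS, HEK293-V1b cells received test compound for half an hour, then a 5 min pulse of EGF (25 nM); ERK phosphorylation in lysates was read by bead-based AlphaScreen.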
Potency means the concentration at half of the fitted maximal effect; tags describe the fitted curve by direction and shape.

| SMILES | Potency |
| --- | --- |
| CC1(C)Cc2ccccc2C(N/N=C/c2ccc([N+](=O)[O-])cc2)=N1 | inconclusive [inhibitor, single point] |
| CC(=O)Nc1sc(N/N=C\c2ccccc2)nc1-c1cccs1 | inconclusive [inhibitor, partial curve] |
| CC(=O)c1ccc(Oc2ncnc3sccc23)cc1 | inactive |
| Cc1ccc(NC(=O)c2c(C(=O)Nc3ccccc3)sc3nc(C)cc(=O)n23)cc1 | inactive |
| Cc1cc2c(cc1[N+](=O)[O-])NC(CNC(C)C)CC2 (centres undefined) | inconclusive [inhibitor, partial curve, poor fit] |
| Cc1ccc2oc(=O)c3c4cc(O)c(O)cc4oc3c2c1 | inconclusive [inhibitor, single point] |
| COc1ccccc1N1C[C@@H]2C[C@@H](c3ccco3)N3CCC[C@@]23C1=O | inactive |
| COc1ccc(-c2csc(=Nc3ccccc3)n2CCO)cc1 | inconclusive [inhibitor, single point] |
| FC(F)(F)c1cc(NC(=S)Nc2ccc3cc4ccccc4cc3c2)cc(C(F)(F)F)c1 | inactive |
| COCCNC(=O)[C@H](C)/C=C/C(NC(=O)OCc1ccccc1)c1ccc(C(=O)OC)cc1 (some centres undefined) | inconclusive [inhibitor, single point] |
| CCN(CC)S(=O)(=O)c1ccc(NN=C2CCN(C(C)C)CC2)c([N+](=O)[O-])c1 | inconclusive [inhibitor, partial curve] |
| Cc1ccccc1S(=O)(=O)Nc1ncnc2scc(-c3ccccc3)c12 | inactive |
| CC1(C)OC2CC3C4CC(F)C5=CC(=O)C=C[C@@]5(C)[C@@]4(F)C(O)C[C@@]3(C)[C@]2(C(=O)CO)O1 (some centres undefined) | inactive |
| CCC(=O)NC1=C(Cl)C(=O)C(NC(=O)CC)=C(Cl)C1=O | inconclusive [inhibitor, single point] |
| CC(C)C[C@@H](CC(=O)N[C@@H](CCC(=O)O)CC(=O)O)NC(=O)[C@@H]1CCCC[C@H]1NC(=O)C[C@H](CCCN)NC(=O)C[C@H](CO)NC(=O)[C@@H]1CNCC[C@H]1N | inactive |
| O=C(CCCOc1ccc(Cl)cc1Cl)N/N=C/c1ccc(Cl)cc1 | inconclusive [inhibitor, partial curve] |
| CC1=C/C(=N\Nc2ccccc2[N+](=O)[O-])CC(C)(C)C1 | active: 12.6 µM |
| CCCN1C(=O)c2cccc3c(N4CCCCC4)ccc(c23)C1=O | inconclusive [activator, partial curve] |
| FC(F)(F)c1ccccc1/C=N/N1CCN(Cc2ccccc2)CC1 | inconclusive [inhibitor, partial curve] |
| CCN(CC)c1ccc(CNCc2cccs2)cc1 | inconclusive [inhibitor, partial curve, poor fit] |
| O=C(Nc1cccc(F)c1)N1CCC2(CCNCC2)CC1 | inactive |
| Cc1cccc(N2C(S)=C(C#N)C(=O)NC2c2cccs2)c1 (centres undefined) | inconclusive [inhibitor, partial curve] |
| CC1=NN(c2cccc(C(=O)O)c2)C(=O)/C1=C\C=C\c1ccco1 | inactive |

| SMILES | Potency |
| --- | --- |
| O=C1/C(=C/c2ccc(O)c(O)c2)SC(=S)N1Nc1ccccc1 | active: 12.6 µM |
| O=C(CSc1cn(Cc2cccc(F)c2)c2ccccc12)NCc1ccc(F)cc1 | inconclusive [inhibitor, partial curve] |
| CCOC(=O)CN1C(=O)S/C(=C/C=C/c2ccc(N(C)C)cc2)C1=O | inconclusive [inhibitor, partial curve] |
| CNc1ccnc(-c2ccccc2C(F)(F)F)n1 | inactive |
| COc1ccc2o/c(=N/NC(=S)Nc3ccccc3)c(C(N)=O)cc2c1 | inactive |
| COc1cccc(Cn2c(=O)cnc3cnc(Oc4cccc(Cl)c4)nc32)c1 | inactive |
| O=c1cc(Cn2ccnc2)c2cc3c(cc2o1)CCC3 | inconclusive [inhibitor, partial curve] |
| Cc1ccc(/C=N/Nc2nc(N3CCCCC3)nc(N3CCCCC3)n2)o1 | inconclusive [inhibitor, single point] |
| CCC1C(=O)Nc2ccccc2N1C(=O)c1ccc(Cl)nc1 (centres undefined) | inconclusive [inhibitor, single point] |
| CCCCCc1cc(=O)oc2c(C(CCN3CCCC(C)C3)c3cc(OC)c(OC)c(OC)c3)c(OC)cc(OC)c12 (centres undefined) | active: 39.8 µM |
| CN1CCN(CC(=O)N2N=C(c3cccs3)CC2c2ccco2)CC1 (centres undefined) | inconclusive [activator, full curve, poor fit] |
| Cc1ccc(-c2nnc(N3CCCCC3)c3ccccc23)cc1 | inconclusive [inhibitor, single point] |
| CCn1c(=O)c([N+](=O)[O-])c(NCc2ccc3c(c2)OCO3)c2ccccc21 | inconclusive [inhibitor, single point] |
| O=C1C2CC=CCC2C(=O)N1c1ccc(NCCc2ccccc2)c([N+](=O)[O-])c1 (centres undefined) | inconclusive [inhibitor, single point] |
| S=C1CCC(c2ccc(Br)cc2)=NN1c1ccccc1 | inactive |
| COc1ccc(-c2nnn(CC(=O)N3CCN(c4ccc(F)cc4)CC3)n2)cc1 | inconclusive [inhibitor, single point] |
| CCOC(=O)c1cnc(-c2ccccc2)nc1-c1ccccc1 | inconclusive [activator, partial curve] |
| COc1cccc(CN(C)C(=O)c2cccc(OC3CCN(C4CCCC4)CC3)c2)c1 | inconclusive [inhibitor, partial curve] |
| CC(=O)Nc1c(O)c2ccccc2[nH]c1=O | inactive |
| O=c1c(-c2cc(F)cc(F)c2)nc2cncnc2n1Cc1ccc(F)cc1 | inconclusive [inhibitor, partial curve, poor fit] |
| Cc1ccc(N2CCN(/N=C/c3ccccc3[N+](=O)[O-])CC2)cc1 | inactive |
| COc1cccc(-c2csc(N3CCN(C(=O)Nc4ccc(Cl)cc4)CC3)n2)c1 | inconclusive [inhibitor, single point] |
| Cc1[nH]n(-c2ccc([N+](=O)[O-])cc2)c(=O)c1/C=N/N1CCOCC1 | inactive |

| SMILES | Potency |
| --- | --- |
| C/C(=N\N1CCN(c2ccc(Cl)cc2)CC1)c1cccc([N+](=O)[O-])c1 | inconclusive [inhibitor, partial curve, poor fit] |
| Cc1ccc(-c2nn(-c3ccccc3)cc2CNCc2ccccc2)cc1 | inconclusive [inhibitor, single point] |
| CN(C)c1nc(-c2ccoc2)nc2ccccc12 | inactive |
| CCCCCN(C(=O)NC(=O)Nc1cccc(C)c1C)S(C)(=O)=O | inconclusive [activator, full curve, poor fit] |
| CCCCn1c(NC(=O)c2ccco2)c(S(=O)(=O)c2ccc(C)cc2)c2nc3ccccc3nc21 | inactive |
| OCCN(Cc1ccccc1)CC(O)COc1ccc(-c2ccccc2)cc1 (centres undefined) | inconclusive [inhibitor, single point] |
| O=C(Nc1ccc(S(=O)(=O)Nc2ccccc2)cc1)c1ccc(CN2CCOCC2)cc1 | inconclusive [inhibitor, single point] |
| O=C(NC(=S)NC1CCSC1=O)c1ccccc1F (centres undefined) | active: 20 µM |
| CC1(C(=O)O)C=CCN1C(=O)c1ccccc1 (centres undefined) | inconclusive [inhibitor, single point] |
| CC1=NNC(=O)c2ccccc2O1 | inactive |
| CCOc1ccc(CCn2c(-c3ccco3)nc3ccccc3c2=O)cc1OCC | inconclusive [inhibitor, full curve, poor fit] |
| Cc1ccc(NC(=S)NNc2ccc([N+](=O)[O-])cc2S(=O)(=O)Nc2ccccc2C(=O)O)cc1C | inconclusive [inhibitor, partial curve] |
| COc1ccc(NC(=S)NC(NC(=O)c2cccc(C)c2)C(Cl)(Cl)Cl)c([N+](=O)[O-])c1 (centres undefined) | inactive |
| CC(C)Oc1ncnc2c1[nH]c1ccccc12 | inactive |
| O=C1/C(=C\c2ccco2)SC(=S)N1c1ccccc1 | inconclusive [inhibitor, partial curve] |
| O=C(COc1ccc(Cl)cc1Cl)N1CCN(c2ccccn2)CC1 | inactive |
| CCOc1cc(CNc2ccc(N3CCCC3)cc2)cc(Cl)c1OC | inconclusive [inhibitor, single point] |
| Cc1cc(C)n2nc(/C(C#N)=C/c3ccccn3)c(C#N)c2n1 | inconclusive [inhibitor, single point] |
| Cc1ccc(N2C(=O)c3cccc4c(Oc5ccccc5[N+](=O)[O-])ccc(c34)C2=O)c(C)c1 | inconclusive [inhibitor, partial curve] |
| Nc1c(C(=O)N/N=C/c2cccnc2)oc2nc(-c3ccco3)cc(-c3ccco3)c12 | inconclusive [inhibitor, partial curve] |
| CC1Cc2ccccc2N1c1nc(C2CC2)nc2c1nnn2Cc1ccccc1 (centres undefined) | inconclusive [activator, partial curve] |
| COc1cc(/C=C2\SC(=S)N(NC(=O)c3cccnc3)C2=O)ccc1O | inconclusive [inhibitor, partial curve, poor fit] |
| N#Cc1ccc(C23CC4(C2)[C@H](CN(Cc2cccnc2)[C@@H]4c2ccccc2)C3c2ccc(C(F)(F)F)cc2)cc1 (some centres undefined) | inactive |
